Test results taken from patent US20190367516A1 (Bayer Pharma Aktiengesellschaft, priority 2015, published 2019).

Biological target: T1, human M2 receptor (Homo sapiens, UniProt P08172)
T1 sequence (P08172 1-466): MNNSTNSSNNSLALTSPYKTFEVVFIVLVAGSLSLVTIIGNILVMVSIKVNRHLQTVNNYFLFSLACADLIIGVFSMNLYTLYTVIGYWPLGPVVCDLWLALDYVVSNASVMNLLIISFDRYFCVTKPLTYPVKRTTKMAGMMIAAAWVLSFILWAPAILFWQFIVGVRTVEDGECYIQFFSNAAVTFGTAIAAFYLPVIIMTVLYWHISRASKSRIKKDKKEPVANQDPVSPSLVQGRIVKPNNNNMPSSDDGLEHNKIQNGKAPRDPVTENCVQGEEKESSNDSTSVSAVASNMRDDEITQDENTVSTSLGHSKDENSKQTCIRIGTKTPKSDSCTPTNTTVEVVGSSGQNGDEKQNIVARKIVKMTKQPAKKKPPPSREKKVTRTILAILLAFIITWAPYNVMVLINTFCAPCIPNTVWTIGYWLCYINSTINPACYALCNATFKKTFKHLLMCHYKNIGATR
Conditions: read-out: Efficiency, M2-GIRK1/4 activation test; boosting of the acetylcholine effect at an EC20 acetylcholine concentration

Emax | SMILES
97.8% | O=C(N[C@H](C1CC1)C(F)(F)F)c1cn(-c2c(F)cc(F)cc2F)c2nc(N3C[C@@H](O)CC3=O)ccc2c1=O [Example 386, N-[(1R)-1-Cyclopropyl-2,2,2-trifluoroethyl]-7-[(4S)-4-hydroxy-2-oxopyrrolidin-1-yl]-4-oxo-1-(2,4,6-trifluorophenyl)-1,4-dihydro-1,8-naphthyridine-3-carboxamide]
95% | CN(CCF)c1ccc2c(=O)c(C(=O)NC3(C(F)(F)F)CC3)cn(-c3ccc(F)cc3F)c2n1 [Example 109, 1-(2,4-Difluorophenyl)-7-[(2-fluoroethyl)(methyl)amino]-4-oxo-N-[1-(trifluoromethyl)cyclopropyl]-1,4-dihydro-1,8-naphthyridine-3-carboxamide]
92.7% | CC(NC(=O)c1cn(-c2ccc(F)cc2F)c2nc(N(C)CC(F)(F)F)ccc2c1=O)C(F)(F)F (racemic) [Example 99, rac-1-(2,4-Difluorophenyl)-7-[methyl(2,2,2-trifluoroethyl)amino]-4-oxo-N-[1,1,1-trifluoropropan-2-yl]-1,4-dihydro-1,8-naphthyridine-3-carboxamide]
89.5% | CC(COC(F)(F)F)NC(=O)c1cn(-c2ccc(F)cc2F)c2nc(N3CC[C@H](F)C3)ccc2c1=O (mixture of isomers) [Example 227, 1-(2,4-Difluorophenyl)-7-[(3S)-3-fluoropyrrolidin-1-yl]-4-oxo-N-[1-(trifluoromethoxy)propan-2-yl]-1,4-dihydro-1,8-naphthyridine-3-carboxamide]
72.5% | CN(CC(=O)O)c1ccc2c(=O)c(C(=O)N[C@@H](C3CC3)C(F)(F)F)cn(-c3c(F)cc(F)cc3F)c2n1 [Example 385, N-[6-{[(1S)-1-Cyclopropyl-2,2,2-trifluoroethyl]carbamoyl}-5-oxo-8-(2,4,6-trifluorophenyl)-5,8-dihydro-1,8-naphthyridin-2-yl]-N-methylglycine]
100% | CC(C)CC(NC(=O)c1cn(-c2ccc(F)cc2F)c2nc(N(C)C)ccc2c1=O)C(F)(F)F (racemic) [Example 145, rac-1-(2,4-Difluorophenyl)-7-(dimethylamino)-4-oxo-N-(1,1,1-trifluoro-4-methylpentan-2-yl)-1,4-dihydro-1,8-naphthyridine-3-carboxamide]
68% | CC[C@@H](NC(=O)c1cn(-c2ccc(F)cc2F)c2nc(N3CCCC3=O)ccc2c1=O)C(F)(F)F [Example 337, 1-(2,4-Difluorophenyl)-4-oxo-7-(2-oxopyrrolidin-1-yl)-N-[(2R)-1,1,1-trifluorobutan-2-yl]-1,4-dihydro-1,8-naphthyridine-3-carboxamide]
95.5% | CC[C@@H](NC(=O)c1cn(-c2ccc(F)cc2F)c2nc(N3CC(C)CC3=O)ccc2c1=O)C(F)(F)F (mixture of isomers) [Example 301, 1-(2,4-Difluorophenyl)-7-[4-methyl-2-oxopyrrolidin-1-yl]-4-oxo-N-[(2R)-1,1,1-trifluorobutan-2-yl]-1,4-dihydro-1,8-naphthyridine-3-carboxamide]
68.5% | CC[C@@H](NC(=O)c1cn(-c2ccc(F)cc2F)c2nc(N3CCOC(C(F)F)C3)ccc2c1=O)C(F)(F)F (mixture of isomers) [Example 263, 7-[2-(Difluoromethyl)morpholin-4-yl]-1-(2,4-difluorophenyl)-4-oxo-N-[(2R)-1,1,1-trifluorobutan-2-yl]-1,4-dihydro-1,8-naphthyridine-3-carboxamide]
